The supplement of paper PMC4967469

How the values were obtained:
SB590885 = compound: CN(C)CCOc1ccc(-c2nc(-c3ccncc3)c(-c3ccc4c(c3)CC/C4=N\O)[nH]2)cc1 [SB590885]; assay: Viability of human cancer cell lines after 72 h of drug (GDSC screen); settings: top dose 5 µM; top dose inferred
Description: (§1)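 Human cancer cell lines in 384-well plates, medium with 10% serum, drug for 72 h over a 256-fold dose range (nine 2-fold or five 4-fold steps up to the top dose). Adherent lines were fixed and stained with the nucleic acid dye Syto60, suspension lines read with resazurin; signal relative to control wells, capped at 0 and 100%. One two-parameter sigmoid per drug and line, fitted in a mixed model over all curves with the slope shared within a line.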

PD-173074 = compound: CCN(CC)CCCCNc1ncc2cc(-c3cc(OC)cc(OC)c3)c(NC(=O)NC(C)(C)C)nc2n1 [PD-173074]; assay: as above; settings: top dose 2 µM; top dose inferred
Description: as §1

Cell Line | AUC (SB590885) | IC50 (SB590885) | AUC (PD-173074) | IC50 (PD-173074)
HN (head and neck, adherent) | 0.981 | > 5000 nM | 0.975 | > 2000 nM
MM1S (myeloma, suspension) | 0.988 | > 5000 nM | 0.94 | > 2000 nM
MDA-MB-330 (breast, adherent) | 0.963 | > 5000 nM | 0.986 | > 2000 nM
SNU-182 (liver, adherent) | 0.986 | > 5000 nM | 0.986 | > 2000 nM
AsPC-1 (pancreas, adherent) | 0.806 | > 5000 nM | 0.966 | > 2000 nM
NCI-H1693 (lung adenocarcinoma, adherent) | 0.953 | > 5000 nM | 0.945 | > 2000 nM
PC-14 (lung adenocarcinoma, adherent) | 0.981 | > 5000 nM | 0.99 | > 2000 nM
Hs-578-T (breast, adherent) | 0.987 | > 5000 nM | 0.877 | > 2000 nM
SBC-5 (small cell lung carcinoma, adherent) | 0.993 | > 5000 nM | 0.991 | > 2000 nM
MDA-MB-361 (breast, adherent) | 0.989 | > 5000 nM | 0.989 | > 2000 nM
QGP-1 (pancreas, adherent) | 0.928 | > 5000 nM | 0.965 | > 2000 nM
HT-1197 (bladder, adherent) | 0.985 | > 5000 nM | 0.985 | > 2000 nM
NCI-H1435 (lung adenocarcinoma, semi-adherent) | 0.993 | > 5000 nM | 0.99 | > 2000 nM
SKG-IIIa (cervix, adherent) | 0.983 | > 5000 nM | 0.983 | > 2000 nM
LCLC-103H (large cell lung carcinoma, adherent) | 0.98 | > 5000 nM | 0.962 | > 2000 nM
Hs633T (fibrosarcoma, adherent) | 0.939 | > 5000 nM | 0.987 | > 2000 nM
HGC-27 (stomach, adherent) | 0.964 | > 5000 nM | 0.972 | > 2000 nM
GAMG (glioma, adherent) | 0.895 | > 5000 nM | 0.847 | 1580 nM
CHL-1 (melanoma, adherent) | 0.97 | > 5000 nM | 0.879 | 1840 nM
G-361 (melanoma, adherent) | 0.889 | > 5000 nM | 0.988 | > 2000 nM
FTC-133 (thyroid, adherent) | 0.98 | > 5000 nM | 0.959 | > 2000 nM
FU-OV-1 (ovary, adherent) | 0.981 | > 5000 nM | 0.97 | > 2000 nM
LNZTA3WT4 (glioma, adherent) | 0.989 | > 5000 nM | 0.937 | > 2000 nM
KMRC-1 (kidney, adherent) | 0.987 | > 5000 nM | 0.949 | > 2000 nM
ChaGo-K-1 (non-small cell lung carcinoma, adherent) | 0.974 | > 5000 nM | 0.979 | > 2000 nM

Cell Line | AUC (SB590885) | IC50 (SB590885) | AUC (PD-173074) | IC50 (PD-173074)
8305C (thyroid, adherent) | 0.866 | > 5000 nM | 0.965 | > 2000 nM
CHSA0108 (chondrosarcoma, adherent) | 0.973 | > 5000 nM | 0.877 | > 2000 nM
RPMI-7951 (melanoma, adherent) | 0.984 | > 5000 nM | 0.987 | > 2000 nM
5637 (bladder, adherent) | 0.978 | > 5000 nM | 0.989 | > 2000 nM
EN (endometrium, adherent) | 0.984 | > 5000 nM | 0.984 | > 2000 nM
SAT (head and neck, adherent) | 0.951 | > 5000 nM | 0.889 | > 2000 nM
U-118-MG (glioma, adherent) | 0.986 | > 5000 nM | 0.985 | > 2000 nM
YH-13 (glioma, adherent) | 0.986 | > 5000 nM | 0.946 | > 2000 nM
MHH-CALL-2 (B-cell leukaemia, suspension) | 0.995 | > 5000 nM | 0.99 | > 2000 nM
KARPAS-1106P (B-cell lymphoma, suspension) | 0.993 | > 5000 nM | 0.958 | > 2000 nM
8505C (thyroid, adherent) | 0.979 | > 5000 nM | 0.984 | > 2000 nM
42-MG-BA (glioma, adherent) | 0.967 | > 5000 nM | 0.94 | > 2000 nM
BT-549 (breast, adherent) | 0.979 | > 5000 nM | 0.978 | > 2000 nM
YKG-1 (glioma, adherent) | 0.975 | > 5000 nM | 0.958 | > 2000 nM
SAS (head and neck, adherent) | 0.982 | > 5000 nM | 0.967 | > 2000 nM
RCM-1 (large intestine, adherent) | 0.954 | > 5000 nM | 0.981 | > 2000 nM
SW620 (large intestine, adherent) | 0.99 | > 5000 nM | 0.99 | > 2000 nM
SK-MEL-31 (melanoma, adherent) | 0.985 | > 5000 nM | 0.985 | > 2000 nM
KMS-11 (myeloma, suspension) | 0.977 | > 5000 nM | 0.981 | > 2000 nM
DK-MG (glioma, adherent) | 0.978 | > 5000 nM | 0.975 | > 2000 nM
OV-90 (ovary, adherent) | 0.736 | 1810 nM | 0.979 | > 2000 nM
639-V (bladder, adherent) | 0.992 | > 5000 nM | 0.916 | > 2000 nM
TT (thyroid, adherent) | 0.974 | > 5000 nM | 0.979 | > 2000 nM
JIMT-1 (breast, adherent) | 0.921 | > 5000 nM | 0.97 | > 2000 nM

A lower IC50 marks a more sensitive line; a limit (>, <) means that the fit lies beyond the doses tested. AUC is the area under the same curve over the 256-fold range up to the top dose, as a fraction: 1 means no effect, lower means more sensitive. An inferred top dose was calculated from the reported fits.
